Experimental data: article PMC4336329 (PLoS ONE, 2015)
Screen size: about 310,000 compounds; about 2,200 (0.71%) showed an effect of 50% or more. Effects have a minus sign here. The list shows a part of the results.

Each compound was assayed against human ether-à-go-go-related gene (hERG) potassium channel (human, UniProt Q12809) (assay: primary screen, population patch clamp on CHO cells stably expressing hERG).
Sequence of human ether-à-go-go-related gene (hERG) potassium channel (Q12809 whole entry, looked up): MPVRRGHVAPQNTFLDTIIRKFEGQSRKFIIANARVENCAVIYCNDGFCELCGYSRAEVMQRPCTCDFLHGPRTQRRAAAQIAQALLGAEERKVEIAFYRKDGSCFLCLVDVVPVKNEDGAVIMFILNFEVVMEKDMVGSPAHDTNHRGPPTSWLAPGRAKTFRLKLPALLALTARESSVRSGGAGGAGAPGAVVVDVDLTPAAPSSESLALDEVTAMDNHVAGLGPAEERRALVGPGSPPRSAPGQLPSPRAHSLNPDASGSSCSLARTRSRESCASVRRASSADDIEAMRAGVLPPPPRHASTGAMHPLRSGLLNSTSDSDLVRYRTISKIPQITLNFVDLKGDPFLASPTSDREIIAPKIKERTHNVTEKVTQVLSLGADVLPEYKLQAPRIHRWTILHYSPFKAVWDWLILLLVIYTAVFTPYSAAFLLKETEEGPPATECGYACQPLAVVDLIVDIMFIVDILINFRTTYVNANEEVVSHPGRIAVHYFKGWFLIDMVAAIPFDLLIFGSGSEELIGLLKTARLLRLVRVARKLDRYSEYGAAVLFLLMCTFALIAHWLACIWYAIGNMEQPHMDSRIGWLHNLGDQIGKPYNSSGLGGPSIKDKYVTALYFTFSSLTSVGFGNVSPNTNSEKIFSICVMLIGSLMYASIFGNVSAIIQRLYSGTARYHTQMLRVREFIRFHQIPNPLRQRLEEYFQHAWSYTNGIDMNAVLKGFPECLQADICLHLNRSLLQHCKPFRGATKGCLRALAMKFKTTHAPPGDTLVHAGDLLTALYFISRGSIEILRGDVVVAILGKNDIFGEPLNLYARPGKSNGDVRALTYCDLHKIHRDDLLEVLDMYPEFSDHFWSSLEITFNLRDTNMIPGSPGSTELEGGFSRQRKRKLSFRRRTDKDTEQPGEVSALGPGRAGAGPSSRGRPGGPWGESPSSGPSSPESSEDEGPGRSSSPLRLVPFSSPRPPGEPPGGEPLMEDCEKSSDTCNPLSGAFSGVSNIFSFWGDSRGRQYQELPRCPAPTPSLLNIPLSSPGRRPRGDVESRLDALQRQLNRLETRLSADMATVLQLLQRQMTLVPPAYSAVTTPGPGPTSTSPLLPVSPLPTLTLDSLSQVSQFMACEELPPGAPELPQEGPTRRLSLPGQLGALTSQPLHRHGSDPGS
With `COCCNC(=S)Nc1ccc([N+](=O)[O-])cc1C` the “hERG current change (%, negative = inhibition) at 1uM” value was 18.1%.
For `CCOC(=O)C1(Cc2ccccc2C)CCCN(C(=O)c2ccc(COC)o2)C1` (centres unmarked), the “hERG current change (%, negative = inhibition) at 1uM” value was 2.13%.
In the case of `COc1ccc(CNc2nc3ccc(C)cc3s2)c(OC)c1OC`, the “hERG current change (%, negative = inhibition) at 1uM” value is reported as 9.14%.
In the case of `O=C(COC(=O)c1cncc(Br)c1)NCc1ccccc1`, the “hERG current change (%, negative = inhibition) at 1uM” value is reported as 11.4%.
In the case of `CCCCC1NC(=S)N(C2CCCCC2)C1=O` (centres unmarked), the “hERG current change (%, negative = inhibition) at 1uM” value is reported as 8.27%.
For `CCCC(=O)NC(=S)Nc1c(C)cc(Br)cc1C`, the “hERG current change (%, negative = inhibition) at 1uM” value was -1.79%.
For `Cc1ccc(C(=O)NCC(=O)NCCCc2ccccc2)cc1`, the “hERG current change (%, negative = inhibition) at 1uM” value was 8.68%.
For `Cc1ccccc1C(=O)N1CCN(c2ccc([N+](=O)[O-])c(NCc3cccnc3)c2)CC1`, the “hERG current change (%, negative = inhibition) at 1uM” value was 0.055%.
For `CCOC(=O)c1c(NC(=O)COC(=O)CCOc2ccccc2C)sc(C(=O)NC)c1C`, the “hERG current change (%, negative = inhibition) at 1uM” value was 15.2%.
`O=c1c2ccccc2nc(SCc2cccc(F)c2)n1C1CCCC1` was tested, and the “hERG current change (%, negative = inhibition) at 1uM” value was -19.6%.
With `COc1ccccc1N(C)S(=O)(=O)c1ccc(C(=O)NCC(C)C)cc1` the “hERG current change (%, negative = inhibition) at 1uM” value was -3.31%.
For `Cl.c1coc(CN2CCN(C(c3cccs3)c3nnnn3C3CCCC3)CC2)c1` (centres unmarked), the “hERG current change (%, negative = inhibition) at 1uM” value was 0.199%.
`COC(=O)c1ccc(NC(=O)CSc2nc(=O)n3cccc(C)c3n2)cc1` was tested, and the “hERG current change (%, negative = inhibition) at 1uM” value was 5.91%.
For `COc1ccc(C2=C/C(=C\c3ccc(OC(C)=O)cc3)C(=O)O2)cc1`, the “hERG current change (%, negative = inhibition) at 1uM” value was 9.48%.
For `COc1ccc(N2CCN(C(=O)COCC(=O)O)CC2)cc1`, the “hERG current change (%, negative = inhibition) at 1uM” value was 13.4%.
For `CCNC(=O)CN1C(=O)NC2(CCCCCC2)C1=O`, the “hERG current change (%, negative = inhibition) at 1uM” value was 15.8%.
With `COc1cc(C(=O)NCC(=O)N/N=C/c2ccco2)cc(OC)c1OC` the “hERG current change (%, negative = inhibition) at 1uM” value was 14.8%.
`Cc1cccc(OCc2n[nH]c(=S)o2)c1` was tested, and the “hERG current change (%, negative = inhibition) at 1uM” value was 15.5%.
`O=C(Nc1cccc(O)c1)c1cc(S(=O)(=O)N2CCCC2)ccc1Cl` was tested, and the “hERG current change (%, negative = inhibition) at 1uM” value was 12.4%.
In the case of `O=C(CN1C(=O)c2ccccc2C1=O)N1CCN(C(=O)c2ccco2)CC1`, the “hERG current change (%, negative = inhibition) at 1uM” value is reported as -2.58%.
For `Cc1nc(-c2ccc(S(=O)(=O)Nc3cccc(S(N)(=O)=O)c3)s2)cs1`, the “hERG current change (%, negative = inhibition) at 1uM” value was 5.78%.
In the case of `Cc1cccnc1NC(=O)C(c1ccccc1)c1ccccc1`, the “hERG current change (%, negative = inhibition) at 1uM” value is reported as 13.3%.
With `COCCn1c(C)cc(C2=NNC(=Nc3ccc(OC)cc3)SC2)c1C` the “hERG current change (%, negative = inhibition) at 1uM” value was 13%.
For `O=C(O)C(C(=O)O)=C1C2CC3CC(C2)CC1C3`, the “hERG current change (%, negative = inhibition) at 1uM” value was 15.8%.
In the case of `CCc1ccc(/C=N/NC(=O)c2cc(C3CC3)nc3ccc(Br)cc23)s1`, the “hERG current change (%, negative = inhibition) at 1uM” value is reported as 12.3%.
For `O=C(NC1CCCC1)C1C2C=CC3(CN(Cc4cccs4)C(=O)C13)O2` (centres unmarked), the “hERG current change (%, negative = inhibition) at 1uM” value was 9.42%.
